In PubChem BioAssay AID1345082 (National Center for Advancing Translational Sciences (NCATS), 2018):
“And” between values parts separate entries of the source, which are not always exact repeats. Identical values can stand only once. The whole screen tested about 94,000 compounds, of which about 4,000 (4.3%) were called active. The inconclusive results got no clear call from the source; some entries with a clear call stand among them for comparison. Calls follow the shape of the dose curve; as a rule, active = well fitted inhibition curve with a large enough effect; inconclusive = small, poorly fitted or top-dose-only effect; inactive = no such curve, though single readings can be large or run the other way. A potency beside an inconclusive call is a rough fit, not a confirmed value.

Experiment: Cytotoxic Profiling in NIH 3T3 Cell Line of Diverse Libraries Using Quantitative High-Throughput Screening; also: nearly all actives have a fitted effect of over 55% in size
Conditions: NIH 3T3 viability, CellTiter-Glo ATP luminescence, 48-72 h; activity change, negative = cytotoxicity: at 96.7 µM (top of the series) unless noted; series mostly up to 96.7 µM
Method in brief: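 First NIH 3T3 cells are plated at 400 cells/well; next compound is pinned in; then plates incubate 48 or 72 hr at 37 °C; finally CellTiter-Glo is added and luminescence read after 10 min.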
% is scaled to controls: 0 for no effect and ±100 for the full control effect; potency is read from the fitted curve at half-maximal effect; tags tell the direction and shape of the fitted curve.

| SMILES | Potency | activity change, negative = cytotoxicity | outcome |
| --- | --- | --- | --- |
| Cc1nn(-c2ccccc2)c2c1C(C)N(CC1CN(C(=O)c3ccc(Cl)nc3)C1)C2=O (stereo not given) | inconclusive: 70.8 µM [inhibitor, partial curve, poor fit] |  |  |
| COc1cccc(OCC(=O)c2ccc3c(c2)N(CCCC(=O)NCc2ccccc2)C(=O)CO3)c1 | active: 39.8 µM |  |  |
| CNc1ccnc(N2CCCC(CO)(Cc3ccc(F)cc3)C2)n1 (stereo not given) | inconclusive: 56.2 µM [inhibitor, partial curve, poor fit] |  |  |
| Fc1ccc(-c2noc([C@@H]3Cc4nc[nH]c4CN3CCCc3ccccc3)n2)cc1Cl | inconclusive: 44.7 µM [inhibitor, partial curve, poor fit] |  |  |
| O=S(=O)(Cc1ccccc1)N[C@H]1CO[C@H]2[C@@H]1OC[C@@H]2Nc1nccc(-c2cccc(F)c2)n1 | inconclusive: 39.8 µM [inhibitor, partial curve, poor fit] |  |  |
| CCOC(=O)c1ccc(NC(=O)N2CCC3(CC2)SCC(=O)N3Cc2ccco2)cc1 | inconclusive: 50.1 µM [inhibitor, partial curve, poor fit] |  |  |
| O=C(NCC(F)(F)F)C1CCN(c2nccc(Nc3ccccc3Cl)n2)CC1 | inconclusive: 17.8 µM [inhibitor, full curve, poor fit] |  |  |
| Cn1nccc1CN1CCC2(C1)C(=O)N(CCc1ccccc1)c1ccccc12 (stereo not given) | inconclusive: 44.7 µM [inhibitor, partial curve, poor fit] and inconclusive: 50.1 µM [inhibitor, partial curve, poor fit] |  |  |
| CC(C)NC(=O)C(C)[C@@H]1CC[C@@]2(C)CC[C@H](N[S+](C)(=O)[O-])[C@@H](C)[C@@H]2[C@H]1O (stereo not given in full) |  | inactive: -26.4% [at 138 µM] |  |
| O=C(NC1CCN(Cc2ccccc2)CC1)C1CCc2ncc(-c3ccsc3)n2C1 (stereo not given) | inconclusive: 44.7 µM [inhibitor, partial curve, poor fit] |  |  |
| COc1ccc(-c2ccc(C(=O)NCCCn3ccnc3C(C)C)cn2)cc1 | inconclusive: 79.4 µM [inhibitor, partial curve, poor fit] |  |  |
| Clc1cccc(-c2ccc(CN3CCN(C4CCNC4)CC3)o2)c1 (stereo not given) | inconclusive: 79.4 µM [inhibitor, partial curve] |  |  |
| COc1ccccc1-c1cc(C(=O)NCc2cccc(C(F)(F)F)c2)nn2cnnc12 | inconclusive: 44.7 µM [inhibitor, partial curve, poor fit] |  |  |
| COc1ccc(-c2nc(C(C)C)nc3c2CCN(C(=O)c2ccc(Cl)nc2)CC3)cc1 | inconclusive: 50.1 µM [inhibitor, partial curve, poor fit] and inconclusive: 44.7 µM [inhibitor, partial curve, poor fit] |  |  |
| Cc1nn(-c2ccccc2)c(C)c1[C@@H]1C=C[C@@H](NC(=O)c2ccco2)C1 | inconclusive: 35.5 µM [inhibitor, partial curve, poor fit] |  |  |
| COCc1nc(C2CC(N)C2)cc(N(C)Cc2sccc2C)n1 (stereo not given) |  | inactive: -17.4% |  |
| COc1cccc(-c2ccnc(-c3nnc(C)n3Cc3ccccc3)c2)c1 | active: 79.4 µM |  |  |
| O=C(CC1CCCN(c2cnn(CC3CC3)c(=O)c2)C1)N1CCN(c2ccccn2)CC1 (stereo not given) | inconclusive: 50.1 µM [inhibitor, partial curve, poor fit] |  |  |
| COc1ccc(CCN2Cc3cc(NC(=O)c4ccc(OC)cc4)ccc3OC(C)C2=O)cc1 (stereo not given) |  | inactive: -27.9% |  |
| O=C1NC(=NC2CCCCC2)C2(CCCN([S+](=O)([O-])c3cccs3)C2)N1c1cccnc1 (stereo not given) | inconclusive: 79.4 µM [inhibitor, partial curve, poor fit] |  |  |

| SMILES | Potency | activity change, negative = cytotoxicity | outcome |
| --- | --- | --- | --- |
| Cc1ccc2nc3n(c2c1)[C@@H](CNCc1ccc2c(c1)OCO2)COC3 | inconclusive: 35.5 µM [inhibitor, partial curve, poor fit] |  |  |
| CCCC(O)CN1CCC(=O)N(Cc2ccccc2)Cc2cc3c(cc21)OCO3 (stereo not given) | inconclusive: 50.1 µM [inhibitor, partial curve, poor fit] |  |  |
| COc1ccc(-c2cc(N3CCN(C(=O)Cc4ccccc4Br)CC3)n[nH]2)cc1 | inconclusive: 50.1 µM [inhibitor, partial curve, poor fit] |  |  |
| COCCNC(=O)C1CCN(C(=O)c2ccc(-c3ccccc3OC)cc2)CC1 |  | inactive: -14.5% |  |
| COc1cccc(CNC(=O)Cn2c(-c3ccc(F)cc3)nc(C)c(CCO)c2=O)c1 | inconclusive: 50.1 µM [inhibitor, partial curve, poor fit] |  |  |
| COc1ccc(C2=NOC3(CCN(Cc4ccc(F)cc4)C3)C2)cc1 (stereo not given) | inconclusive: 79.4 µM [inhibitor, partial curve, poor fit] |  |  |
| O=C1OCC2(CCN(Cc3ccc(Cl)cc3)C2)N1Cc1ccccn1 (stereo not given) | inconclusive: 56.2 µM [inhibitor, partial curve, poor fit] |  |  |
| COC(=O)N(C)Cc1ccc(-c2ccccc2)cc1 | inconclusive: 50.1 µM [inhibitor, partial curve, poor fit] |  |  |
| O=C(c1ccc2ncccc2c1)N1CCC(N2C(=O)C(O)C23CCCCC3)CC1 (stereo not given) |  | inactive: -14.2% |  |
| Cc1ccc(C(=O)N2CCC(Cc3nc(-c4ccccc4)no3)CC2)s1 | inconclusive: 44.7 µM [inhibitor, partial curve, poor fit] |  |  |
| CCNC(=O)N1CC(C(=O)NCc2cccc(F)c2)CC(c2ccc(F)c(C)c2)C1 (stereo not given) | inconclusive: 50.1 µM [inhibitor, single point] |  |  |
| CCOC(=O)[C@@H]1[C@@H](OC)C(=O)N(C)C12CCN([S+](=O)([O-])c1ccc(C(C)=O)cc1)CC2 | inconclusive: 70.8 µM [inhibitor, partial curve, poor fit] |  |  |
| CN1[C@H]2CC[C@@H]1CN(C(=O)c1cc(-c3ccc(O)cc3)n[nH]1)CC2 |  | inactive: -16.8% |  |
| COc1ccc(C(=O)N2CCC(C(NC(=O)c3ccccc3C)C(=O)NC(C)C(C)C)CC2)cc1 (stereo not given) |  | inactive: -15.1% |  |
| Cc1cccc(NC(=O)N2CCC3(CC2)CC(N(C2CC2)S(C)(=O)=O)CCO3)c1 (stereo not given) |  | inactive: -19.5% |  |
| CCc1ccc(N2CC(c3noc(-c4ccc(OC)c(F)c4)n3)CC2=O)cc1 (stereo not given) | inconclusive: 44.7 µM [inhibitor, partial curve, poor fit] |  |  |
| COc1cccc(-c2c(C(=O)N3CCN(C(C)=O)CC3)nc3sccn23)c1 |  | inactive: -11% |  |
| COc1ccccc1-c1cc(-c2ccsc2)c2onc(C)c2n1 | inconclusive: 56.2 µM [inhibitor, partial curve, poor fit] |  |  |
| CCN(CC)C(=O)CCc1c(C)nn(-c2ccccc2)c1Oc1ccccc1 | inconclusive: 44.7 µM [inhibitor, partial curve, poor fit] |  |  |
| Cc1nn(-c2ccccc2)c2c1C(C)N(C1CCN(C(=O)Nc3ccc(Cl)cc3)CC1)C2=O (stereo not given) | inconclusive: 20 µM [inhibitor, full curve] |  |  |

| SMILES | Potency | activity change, negative = cytotoxicity | outcome |
| --- | --- | --- | --- |
| COCCOc1ccc2c(n1)CCN(C(=O)c1nn(C)c3ccccc13)C2 |  | inactive: -18.3% |  |
| C#CCNC(=O)c1nc(-c2ccc(Cl)cc2)c2cnccn12 | inconclusive: 11.2 µM [inhibitor, full curve, poor fit] |  |  |
| COc1cc(CN2CCCCC23Cc2ccccc2CNC3=O)cc(OC)c1 (stereo not given) | inconclusive: 50.1 µM [inhibitor, partial curve, poor fit] |  |  |
| COCCN1C(=O)c2cccn2CC1CNC(=O)c1cc(C)nn1C (stereo not given) |  | inactive: 1.56% |  |
| COCCNC(=O)c1cc(-c2ccc(Cl)cc2Cl)nc2c1cnn2C | inconclusive: 50.1 µM [inhibitor, single point] |  |  |
| Cc1ccc(S(=O)(=O)N2[C@@H]3CC[C@H]2CC(NC(=O)c2ccncc2)C3)c(C)c1 (stereo not given in full) | inconclusive: 50.1 µM [inhibitor, partial curve, poor fit] |  |  |
| COC(=O)N(C)Cc1cccc(N2CCN(C(C)c3ccccc3)CC2)c1 (stereo not given) | inconclusive: 39.8 µM [inhibitor, partial curve, poor fit] |  |  |
| Cc1cnn(CCC(=O)N2C[C@@H](CO)[C@H](c3ccccn3)C2)c1 |  |  | inactive |
| O=C(CCc1ccsc1)N1CCC2(CC1)OCCCC2O (stereo not given) |  | inactive: -8.45% |  |
| COc1cccc(-c2cc(C3CCN(C(=O)Nc4ccccc4Cl)CC3)[nH]n2)c1 | inconclusive: 50.1 µM [inhibitor, partial curve, poor fit] |  |  |
| Cc1ccc(CN2CCC(N3CC(OCC4CC4)C34CCOCC4)CC2)s1 (stereo not given) | inconclusive: 35.5 µM [inhibitor, partial curve, poor fit] |  |  |
| COC(=O)CNC(=O)c1nc2sccn2c1-c1cccc(C(F)(F)F)c1 | inconclusive: 89.1 µM [inhibitor, partial curve, poor fit] |  |  |
| O=C(NCCCN1CCCc2ccccc21)c1ccc(N2CC3CC(C2)[C@H]2CCCC(=O)N2C3)nc1 (stereo not given in full) |  | inactive: -15% |  |
| COc1cccc(C(=O)NC2CCN(c3nccc(Nc4ccccc4OC)n3)CC2)c1 | inconclusive: 50.1 µM [inhibitor, partial curve, poor fit] |  |  |
| Cc1cc(C(=O)NCc2ccncc2)c2c(C3CCNC3)noc2n1 (stereo not given) |  | inactive: -3.17% |  |
| COc1ccccc1-c1ccc(CN2CCC(N[S+](=O)([O-])c3cccs3)C2)cc1 (stereo not given) | inconclusive: 50.1 µM [inhibitor, partial curve, poor fit] |  |  |
| Cc1cc(C(=O)Nc2ccc([C@@H](O)[C@H]3COCC(=O)N3CC(C)C)cc2)n(C)n1 |  | inactive: -32.7% [at 138 µM] |  |
| O=C(NC1CC1)C1CCC(=O)N(CCCc2ccccc2)C1 (stereo not given) |  |  | inactive |
| COc1cccc(-c2ccc(CN3CCCC3C(=O)NCC(F)F)cc2)c1 (stereo not given) | inconclusive: 50.1 µM [inhibitor, partial curve, poor fit] |  |  |
| O=C1CCNCCCC(c2nc(-c3ccccc3)no2)CCN1 (stereo not given) |  |  | inactive |
